{"source": "patent US8367727B2", "about": "“Method of using abscisic acid to treat diseases and disorders” (priority 2006, dated 2013)", "system": "PPAR γ flfl; MMTV-Cre+ and PPAR γ flfl; MMTV-Cre- mice", "assay": "High-fat feeding of PPAR γ flfl; MMTV-Cre+ and MMTV-Cre- mice for 28 weeks", "key": {"[1]": {"details": "MMTV-Cre+ and MMTV-Cre-, 28 weeks"}, "[2]": {"details": "mice expressing PPAR γ in immune cells"}}, "data": [{"smiles": "CC1=CC(=O)CC(C)(C)C1(O)/C=C/C(C)=C\\C(=O)O", "note": "(racemic) [ABA, abscisic acid]", "values": [{"measurement": "body weights", "setting": "[1]", "result": "did not increase body weights"}, {"measurement": "food intake", "setting": "[1]", "result": "did not effect food intake"}, {"measurement": "infiltration of F4/80hi into WAT", "setting": "PPAR γ fl/fl, MMTV-Cre+ mice", "result": "abrogated the ability of ABA to suppress infiltration"}, {"measurement": "amount of F4/80hi macrophages", "setting": "PPAR γ fl/fl, MMTV-Cre- mice", "result": "significantly decreased"}, {"measurement": "total SVF macrophage infiltration", "setting": "PPAR γ fl/fl, MMTV-Cre- mice", "result": "significantly decreased"}, {"measurement": "normalization of blood glucose 90 minutes after intraperitoneal GTT", "setting": "deficiency of PPAR γ in immune cells (MMTV-Cre+)", "result": "abrogated ABA-induced normalization of fasting blood glucose concentrations"}, {"measurement": "WAT MCP-1 levels", "setting": "[2]", "result": "decreased both WAT and plasma MCP-1 levels"}, {"measurement": "plasma MCP-1 levels", "setting": "[2]", "result": "decreased both WAT and plasma MCP-1 levels"}, {"measurement": "ability to suppress expression of MCP-1 in WAT", "setting": "tissue-specific PPAR γ null mice", "result": "significantly impaired"}]}]}
